Reference: PubChem BioAssay AID504332 (National Center for Advancing Translational Sciences (NCATS), 2011)
Hit rate of the full screen: of about 350,000 compounds, about 31,000 (8.9%) were called active. The shares of active, inactive and inconclusive entries below differ from those in the screen. Calls follow the shape of the dose curve; as a rule, active = well fitted inhibition curve with a large enough effect; inconclusive = small, poorly fitted or top-dose-only effect; inactive = no such curve, though single readings can be large or run the other way. Potencies beside an inconclusive call are fits to weak or partial responses and may not hold up.

Molecular target: Histone-lysine N-methyltransferase EHMT2 (Homo sapiens) (UniProt Q96KQ7)
UniProt Q96KQ7, sequence (Q96KQ7 whole entry, looked up): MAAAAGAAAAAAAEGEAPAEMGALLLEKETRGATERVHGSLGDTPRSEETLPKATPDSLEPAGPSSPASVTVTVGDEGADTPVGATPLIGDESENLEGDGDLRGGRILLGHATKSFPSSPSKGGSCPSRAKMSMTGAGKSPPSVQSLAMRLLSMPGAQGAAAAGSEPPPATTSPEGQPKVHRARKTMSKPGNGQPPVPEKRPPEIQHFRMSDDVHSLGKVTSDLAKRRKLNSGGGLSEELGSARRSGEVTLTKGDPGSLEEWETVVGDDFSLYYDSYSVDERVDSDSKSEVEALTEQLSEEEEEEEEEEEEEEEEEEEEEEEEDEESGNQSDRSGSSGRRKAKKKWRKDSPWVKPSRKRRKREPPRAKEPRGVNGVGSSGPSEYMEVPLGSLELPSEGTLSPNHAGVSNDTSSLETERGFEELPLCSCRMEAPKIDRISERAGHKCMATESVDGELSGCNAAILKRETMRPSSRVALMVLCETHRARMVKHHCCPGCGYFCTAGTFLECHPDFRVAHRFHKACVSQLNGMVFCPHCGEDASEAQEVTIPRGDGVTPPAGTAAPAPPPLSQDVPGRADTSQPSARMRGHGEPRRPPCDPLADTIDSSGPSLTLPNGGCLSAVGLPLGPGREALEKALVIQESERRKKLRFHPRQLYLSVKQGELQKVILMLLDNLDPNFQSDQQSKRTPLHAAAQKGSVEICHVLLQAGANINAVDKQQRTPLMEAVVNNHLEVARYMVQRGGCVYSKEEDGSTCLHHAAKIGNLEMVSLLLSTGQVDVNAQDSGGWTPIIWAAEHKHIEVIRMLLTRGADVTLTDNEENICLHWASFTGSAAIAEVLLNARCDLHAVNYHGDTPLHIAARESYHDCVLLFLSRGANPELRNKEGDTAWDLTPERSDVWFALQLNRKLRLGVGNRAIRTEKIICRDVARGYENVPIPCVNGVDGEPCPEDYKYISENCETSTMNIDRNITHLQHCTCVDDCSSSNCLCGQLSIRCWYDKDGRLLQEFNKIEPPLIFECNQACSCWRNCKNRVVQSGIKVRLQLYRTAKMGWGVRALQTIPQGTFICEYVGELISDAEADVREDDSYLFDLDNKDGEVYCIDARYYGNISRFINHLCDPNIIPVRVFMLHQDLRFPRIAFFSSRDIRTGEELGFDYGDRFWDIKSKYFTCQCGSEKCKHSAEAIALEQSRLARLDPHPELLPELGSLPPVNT
Test: qHTS Assay for Inhibitors of Histone Lysine Methyltransferase G9a; also: nearly all actives have a fitted effect of over 75% in size
Conditions: G9a H3K9 monomethylation, AlphaScreen, 2 h; activity, negative = inhibition: at 59 µM (top of the series) unless noted
How it was run: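 Enzyme 20 nM + cpd, 15 min RT; add b-H3K9 pep 500 nM / SAM 20 uM; 2 h RT; anti-H3K9me1 Ab 0.5 ug/mL + SA donor / anti-rabbit acceptor beads 20 ug/mL each, 10 min; AlphaScreen read.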
% is scaled to controls: 0 for no effect and ±100 for the full control effect; potency is read from the fitted curve at half-maximal effect; tags tell the direction and shape of the fitted curve.

Compound | Potency | activity, negative = inhibition
COc1cccc2cc(C(C)N(CCCN3CCOCC3)C(=S)Nc3cc(C)cc(C)c3)oc12 (centres undefined) | inconclusive: 28.2 µM [inhibitor, full curve] | 
Cc1ccc(S(=O)(=O)N2CCOCC2)cc1C(=O)NC(=S)N(Cc1ccccc1)C(C)C | inconclusive: 89.1 µM [inhibitor, single point] | 
CCC1CCCCN1C(=O)CSc1nnc(-c2cccs2)o1 (centres undefined) | inconclusive: 70.8 µM [inhibitor, single point] | 
CCC(=O)N1CCc2cc(Br)cc(S(=O)(=O)N3CCC(C(=O)Nc4ccccc4CC)CC3)c21 |  | inactive: 8.63%
COc1cccc(C2CC(=O)Nc3cc4c(cc32)OCO4)c1OC(C)C (centres undefined) | inconclusive: 15.8 µM [inhibitor, partial curve] | 
O=C1c2ccccc2C2(c3ccccc3)NCCCN12 (centres undefined) |  | inactive: 8.2% [at 102 µM]
NC(=S)Nc1nc2ccccc2[nH]c1=O | active: 7.94 µM | 
N#CC(=C=[N-])c1nc2ccccc2nc1-[n+]1cccc(NC(=O)c2cccs2)c1 | inconclusive: 50.1 µM [inhibitor, partial curve] | 
Cc1cccc(N(CC(=O)NCc2ccco2)C(=O)CNS(=O)(=O)c2ccc(F)cc2)c1 |  | inactive: -13.2% [at 102 µM]
O=C(c1ccc(Br)cc1)N1CCN(CCc2ccncc2)CC1 |  | inactive: 4.22%
CCN1CC(CCN2CCOCC2)C(c2ccccc2)(c2ccccc2)C1=O (centres undefined) |  | inactive: 2.3% [at 12.7 µM]
Cn1nc(-c2ccccc2F)c2cc(C(=O)NCCc3ccc(Cl)cc3)sc21 |  | inactive: -3.67%
O=c1c2ccccc2nc(-c2ccco2)n1CCc1ccc(O)cc1 | inconclusive: 89.1 µM [inhibitor, single point] | 
Nc1nc(-c2ccco2)nn1C(=O)c1cccnc1 | active: 50.1 µM | 
CCn1c(SCC(=O)Nc2cc(C)on2)nc2sc3c(c2c1=O)CCCC3 | inconclusive: 39.8 µM [inhibitor, single point] | 
COC(=O)C1CCN(S(=O)(=O)Cc2ccccc2Cl)CC1 |  | inactive: 23.9%
CC(=O)Nc1nc2n(n1)C(c1ccc(F)cc1)C=C(c1ccccc1)N2 (centres undefined) | active: 8.91 µM | 
Cc1cccc(CC(=O)Nc2ccc(C(=O)N3CCOCC3)cc2)c1 |  | inactive: 17.8% [at 102 µM]
Cc1ccc(NC(=O)/C(C#N)=N/Nc2ccc(C(=O)O)cc2)c(C)c1 |  | inactive: -12.6% [at 12.7 µM]
CN(C)c1ccc(CNC(=O)c2cnc3sc(N4CCOCC4)nn3c2=O)cc1 |  | inactive: 7.84%
Cc1ccccc1NC(=O)c1ccc([N+](=O)[O-])o1 | inconclusive: 89.1 µM [inhibitor, partial curve, poor fit] | 
CC(=O)c1ccc(NC(=O)CSc2ccc(-c3cccs3)nn2)cc1 | active: 2.82 µM | 
COc1ccc(OC)c(NC(=O)C2CCN(S(=O)(=O)c3ccc4c(c3)CCCC(=O)N4)CC2)c1 |  | inactive: -26.7%
COC(=O)Nc1nnc(-c2ccncc2)s1 |  | inconclusive: -98.8% [inhibitor]
CCc1ccc(NC(=O)CCn2cccc2)cc1 | active: 50.1 µM | 

Compound | Potency | activity, negative = inhibition
O=c1[nH]c(=S)[nH]cc1S(=O)(=O)c1cccc(Cl)c1 | active: 39.8 µM | 
COc1cccc(NC(=O)CN(C)C(=O)c2ccc(N3CCOCC3)c([N+](=O)[O-])c2)c1 | inconclusive: 44.7 µM [inhibitor, partial curve, poor fit] | 
CCOC(=O)c1cc(C)n(CC2CCC(C(=O)Nc3cccc(C)c3)CC2)c1C (centres undefined) |  | inactive: -40.1%
O=C(CN1CCCC1)Nc1c2c(cc3c1CCC3)CCC2 | inconclusive: 89.1 µM [inhibitor, single point] | 
CCOC(=O)c1c(NC(=O)c2ccc(S(=O)(=O)N3CCC(C)CC3)cc2)sc2c1CCN(CC)C2 |  | inactive: 3.01%
CCOC(=O)c1ccc(N2C(=O)c3n[nH]c(-c4ccco4)c3C2c2ccc(O)c(OCC)c2)cc1 (centres undefined) | inconclusive: 22.4 µM [inhibitor, partial curve] | 
Cc1nc(N)sc1N=Nc1ccc(F)cc1 | active: 44.7 µM | 
C=CCn1c(C)cc(C(=O)COc2ccc(C)nc2[N+](=O)[O-])c1C | inconclusive: 14.1 µM [inhibitor, single point] | 
COc1ccc(/C(O)=C2/C(=O)C(=O)N(CCN3CCOCC3)C2c2ccccn2)cc1OC (centres undefined) | inconclusive: 3.98 µM [inhibitor, full curve, poor fit] | 
COc1cc(C(=S)N2CCOCC2)cc(OC)c1OC(=O)c1cc([N+](=O)[O-])cc([N+](=O)[O-])c1 | active: 31.6 µM | 
Cc1noc(NS(=O)(=O)c2ccc(NC(=O)CSc3ncccn3)cc2)c1C | inconclusive: 35.5 µM [inhibitor, partial curve, poor fit] | 
Cc1ccc(C(=O)Nc2ccccc2C(=O)NC(CC(=O)O)C(=O)O)cc1 (centres undefined) | inconclusive: 56.2 µM [inhibitor, partial curve, poor fit] | 
COc1ccc(NC(=O)C2C3C=CC4(O3)C2C(=O)N(CCCN2CCCC(C)C2)C4C(=O)NC2CCCCC2)cc1 (centres undefined) | inconclusive: 89.1 µM [inhibitor, single point] | 
C#CCN(CC=C)C(=O)c1ccc2nc(C3CCCCC3)oc2c1 |  | inactive: 3.48% [at 102 µM]
Cc1cc(C)cc(NC(=S)N(Cc2ccc(Cl)cc2)Cc2ccc(C(=O)O)cc2)c1 |  | inactive: 18.6% [at 102 µM]
Cc1cccc(-n2c(Cc3ccccc3)nnc2SCc2nc(-c3cccs3)no2)c1 |  | inactive: -6.6%
O=C(CN1C(=O)COc2ccc(S(=O)(=O)N3CCCC3)cc21)N1CCN(c2ccc(F)cc2)CC1 |  | inactive: -43.2%
CC(C)(C)c1ccc(OCC(O)CN2CCN(c3ccccn3)CC2)cc1 (centres undefined) | active: 50.1 µM | 
CCn1c(SCC(=O)NCCc2ccc(OC)c(OC)c2)nc2c1c(=O)n(C)c(=O)n2C | inconclusive: 70.8 µM [inhibitor, partial curve] | 
O=C(CSc1ccc(-c2ccco2)nn1)N1CCCCCC1 | inconclusive: 79.4 µM [inhibitor, single point] | 
CCOc1ccccc1NC(=O)/C=C/c1ccccc1[N+](=O)[O-] | inconclusive: 1.58 µM [inhibitor, full curve] | 
Cc1ccc(/C=N/NC(=O)CNC(=O)COc2ccccc2)o1 | inconclusive: 22.4 µM [inhibitor, single point] | 
CCOC(=O)/C(C#N)=C\C=C1C=CN(C)C=C1 | inconclusive: 25.1 µM [inhibitor, partial curve, poor fit] | 
CN(C)/N=C/c1ccc(P(c2ccc(/C=N/N(C)C)o2)c2ccc(/C=N/N(C)C)o2)o1 | active: 35.5 µM | 
CCC(C)(C)n1nnnc1C(c1cc2cc(OC)ccc2[nH]c1=O)N1CCc2ccccc21 (centres undefined) |  | inconclusive: -62% [inhibitor]

Compound | Potency | activity, negative = inhibition
CCC1CCCCN1CC(O)COCc1cccc(OC)c1 (centres undefined) |  | inactive: 13% [at 102 µM]
COCCCNc1nc(-c2ccncc2)nc2ccccc12 | inconclusive: 89.1 µM [inhibitor, single point] | 
COc1cccc(/C=N/NC(=O)c2[nH]c(C)c(C(=O)N/N=C/c3cccc(OC)c3)c2C)c1 | inconclusive: 7.94 µM [inhibitor, full curve, poor fit] | 
COC(=O)c1sc(N2CCN(c3ccc(Cl)cc3)CC2)nc1N | inconclusive: 35.5 µM [inhibitor, partial curve] | 
O=C(CN1CCCCCC1)Nc1ccc(Cl)cc1F |  | inactive: -4.75% [at 102 µM]
c1ccc(Cc2nnc3sc(-c4ccc5c(c4)OCCO5)nn23)cc1 | active: 10 µM | 
COc1cc(-c2nnc3sc(Cc4ccccc4)nn23)cc(OC)c1OC | active: 35.5 µM | 
COc1ccc(C(C)(C)C)cc1NC(=O)C1CC=CCC1C(=O)O (centres undefined) | inconclusive: 39.8 µM [inhibitor, single point] | 
CCCCCN(C(=O)CCC(=O)OCC(=O)c1cccc(OC)c1)c1c(N)n(CCCC)c(=O)[nH]c1=O | inconclusive: 50.1 µM [inhibitor, single point] | 
COc1cccc(C(=O)Nc2ccc3c(C)cc(=O)oc3c2)c1 | inconclusive: 89.1 µM [inhibitor, single point] | 
O=C(O)C1C2C=CC(C2)C1C(=O)OCC1CCCO1 (centres undefined) | inconclusive: 12.6 µM [inhibitor, partial curve, poor fit] | 
O=C(c1ccco1)N1CCN(C(=O)c2cccc3c2C(=O)N(C2CCCCC2)C3)CC1 | active: 44.7 µM | 
CCN1CCN(C(=S)NCC2CCCO2)CC1 (centres undefined) | active: 39.8 µM | 
CCN=c1scc(C)n1/N=C/c1cc(Br)c(O)c(Br)c1 | active: 10 µM | 
CCC1c2ccc(C)n2CCN1C(=O)Nc1ccccc1C(=O)OC (centres undefined) | active: 50.1 µM | 
CCN(CC)S(=O)(=O)c1ccc(Cl)c(C(=O)Nc2ccc(Cl)cc2[N+](=O)[O-])c1 | active: 8.91 µM | 
Cn1nnnc1SCC(=O)Nc1ccc(N2CCOCC2)cc1 | inconclusive: 31.6 µM [inhibitor, single point] | 
COc1ccccc1CNC(=O)COC(=O)c1cccc(S(=O)(=O)N2CCCC2)c1 |  | inactive: 32.7% [at 102 µM]
Cc1ccc(S(=O)(=O)N2CCCCC2)cc1NC(=O)CCCOc1ccccc1 | inconclusive: 15.8 µM [inhibitor, partial curve, poor fit] | 
COc1ccc(CC(=O)NNC(=S)Nc2ccc(Br)cc2)cc1 | inconclusive: 70.8 µM [inhibitor, single point] | 
CCn1c(SCC(=O)N/N=C/C=C/c2ccco2)nc2ccccc21 | active: 6.31 µM | 
Cc1cc(C)nc(NC(=O)c2ccc(Br)cc2)n1 | inconclusive: 39.8 µM [inhibitor, single point] | 
COc1ccc(C2NC(C(=O)O)Cc3c2[nH]c2ccccc32)cc1OC (centres undefined) | inconclusive: 1 µM [inhibitor, partial curve, poor fit] | 
Cc1ccc(S(=O)(=O)N(C)C)cc1NC(=O)COC(=O)CN1C(=O)c2ccccc2C1=O |  | inactive: 0.738% [at 12.7 µM]
